In all, about 33,000 sequences were measured (“E-score (-0.5 to 0.5)”: median about -0.016, highest 2% from about 0.32 on). The list shows a part of the results.
Molecular target: T1, Stp1 (UniProt B3LFK1)
T1 sequence: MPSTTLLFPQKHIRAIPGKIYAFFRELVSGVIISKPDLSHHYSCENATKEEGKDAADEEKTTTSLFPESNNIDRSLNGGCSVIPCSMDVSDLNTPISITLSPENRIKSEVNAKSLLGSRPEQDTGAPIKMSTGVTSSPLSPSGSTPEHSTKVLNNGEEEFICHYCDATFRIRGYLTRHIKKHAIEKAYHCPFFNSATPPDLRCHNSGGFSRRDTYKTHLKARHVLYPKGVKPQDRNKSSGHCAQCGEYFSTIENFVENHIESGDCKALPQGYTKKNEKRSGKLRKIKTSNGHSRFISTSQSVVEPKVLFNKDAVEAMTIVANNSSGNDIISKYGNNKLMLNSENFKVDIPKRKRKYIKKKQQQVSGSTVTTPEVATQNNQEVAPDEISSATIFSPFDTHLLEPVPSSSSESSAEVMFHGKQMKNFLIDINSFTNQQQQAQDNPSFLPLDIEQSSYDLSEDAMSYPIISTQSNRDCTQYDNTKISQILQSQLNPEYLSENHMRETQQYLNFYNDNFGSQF
Experiment: PBM E-score (8-mer binding enrichment) (E-score (-0.5 to 0.5)); higher = stronger / more preferred TF binding; most listed sequences are background and not binding sites
Details: protein concentration: 200 nM; construct: GST-full length
How it was run: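 E-scores (a modified Wilcoxon-Mann-Whitney statistic) were assigned by the Universal PBM Analysis Suite to every ungapped eight-base word pooled with its reverse complement. The input came from universal all-10-mer Agilent arrays made double-stranded by primer extension and probed with GST-tagged yeast transcription factors at about 100-200 nM. Fluorescent anti-GST detected bound protein, and masliner normalised the scans.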

Row | Sequence | PBM E-score
1 | AGTACGCA | -0.25
2 | AAGAGACG | 0.101
3 | CTCAGAAA | 0.0285
4 | CTTACCCC | -0.264
5 | ACTTGTTG | -0.0561
6 | AACCGTGA | -0.155
7 | ACACACGC | 0.0943
8 | CGCCAAGC | -0.00314
9 | ACCTCGCA | -0.08
10 | AACAGCAA | 0.1
11 | CTCGGCGC | 0.382
12 | CACGGTGA | 0.131
13 | GAGACCTC | -0.263
14 | ATGTAAAG | 0.0971
15 | AGGTCTTA | -0.183
16 | CAGAGTCG | -0.204
17 | CAGCATAG | 0.0477
18 | ATAGCACC | -0.0975
19 | CGCCATAG | 0.165
20 | CGGCCATA | 0.145
21 | ACGCAATG | -0.0464
22 | CATCACTA | -0.0115
23 | AAAAGTGC | 0.124
24 | GAATCATA | 0.0773
25 | CCACCGGG | -0.231

Row | Sequence | PBM E-score
26 | CATTTAAA | 0.279
27 | AGGCCAGA | -0.103
28 | CCGGTTTA | -0.161
29 | GTCATAAC | -0.0625
30 | CCGTACCA | 0.261
31 | ATTACTTA | 0.0671
32 | CTTATTTC | 0.182
33 | CGTTACCA | -0.0254
34 | CTAGACGC | -0.125
35 | CTAAAGAG | -0.0751
36 | AACCCGCG | 0.297
37 | CTAAACAG | -0.0365
38 | CGGTGACA | -0.0628
39 | AACATGTG | 0.15
40 | CATAGCAC | 0.0761
41 | CCCCGACG | -0.319
42 | ACGTTGCT | 0.00321
43 | CACTGTAC | -0.238
44 | CATAATGC | 0.0509
45 | GCCTCCCA | -0.17
46 | GAACGACA | -0.0397
47 | GGCAGGAC | -0.259
48 | GGATTAGA | -0.0751
49 | AGATAACG | 0.0934
50 | GAAGCTGA | 0.0825

Row | Sequence | PBM E-score
51 | CACTACGA | 0.117
52 | GCACCGAC | 0.0657
53 | GATTTACA | 0.176
54 | AGTTTTTG | 0.0652
55 | GGAAGTAA | -0.0379
56 | CGCTGGAA | -0.0996
57 | ATCACGGG | 0.00016
58 | AAGCTCTA | -0.168
59 | CGACGGCA | 0.299
60 | GACATGAC | -0.23
61 | GGTAATTA | 0.0758
62 | CCGAATTC | 0.113
63 | CAATCGAG | -0.175
64 | GAAATGCA | -0.0558
65 | GCGCTGCC | 0.101
66 | CCTAAGCA | -0.132
67 | GCGTGACA | 0.0835
68 | CTGCTATA | 0.149
69 | ACCATGTC | 0.0222
70 | CGGTTTTA | 0.0483
71 | CATTCCCC | -0.176
72 | AGGCCCTG | -0.157
73 | GAAAAAAA | 0.161
74 | CCGGTTTC | -0.0319
75 | CTAAGACA | -0.0409

Row | Sequence | PBM E-score
76 | GACAAATC | -0.0574
77 | GAAAAGAC | 0.122
78 | CGCCTTAC | 0.405
79 | TCTGCTCA | -0.136
80 | CAAAAGGG | -0.0564
81 | ATAGATAC | 0.00676
82 | GTACACGA | 0.136
83 | CCGTATGA | 0.337
84 | TTACTGAA | 0.165
85 | GACATTCA | 0.0582
86 | AGCAGTCC | -0.264
87 | CGCGCTGA | -0.0138
88 | ACACGTCG | -0.162
89 | AATGGTTC | 0.0729
90 | GAGTGGCC | -0.0758
91 | GGCAAAGA | 0.19
92 | ATGAGACA | -0.0615
93 | GACCGAAC | -0.0124
94 | GCATCGCC | 0.254
95 | AGTGCGTG | 0.0595
96 | ATATGAGC | 0.0539
97 | GGCATACC | 0.0293
98 | AGTAGTAC | 0.0812
99 | CAATAAGC | 0.132
100 | AACTGTTA | 0.0428

Row | Sequence | PBM E-score
101 | CCTGCGTA | 0.0256
102 | AAGGTTAT | -0.0301
103 | CAAAGCTG | 0.113
104 | AACCGAGT | -0.292
105 | ACGCGACC | -0.182
106 | CAATCGCG | -0.0615
107 | GGCAGGGA | -0.13
108 | CCCAATTC | 0.12
109 | AGTAAGGA | -0.101
110 | TCATGGCA | -0.00249
111 | CGTCGAGC | -0.0762
112 | TAACCCAA | 0.119
113 | ACTTTCCT | -0.204
114 | CGCAAGCC | 0.136
115 | GACGGCAA | 0.325
116 | ATGACTTC | 0.00281
117 | AAGGTAAG | 0.00297
118 | TATGCGCA | -0.0223
119 | CATTTGGC | 0.0442
120 | GTGACTTA | -0.0523
121 | ACGCCTGA | 0.117
122 | CCCACGCC | -0.114
123 | ATACGAAT | 0.0428
124 | GTTACAGA | -0.18
125 | ATCTCTCG | -0.159

Row | Sequence | PBM E-score
126 | CCTCATCA | 0.136
127 | TCGATTCA | -0.0587
128 | CGTAGCTC | 0.241
129 | AAGAAGGC | 0.0892
130 | CATTTAAG | 0.0486
131 | GTAAAGAA | 0.129
132 | CGAATGAC | -0.0615
133 | GCAGTTAC | -0.0185
134 | CATTATAG | -0.0525
135 | CACTCTAA | -0.0164
136 | GGGAATTA | -0.0857
137 | GACGCCTC | 0.299
138 | ACCGTTAC | -0.119
139 | GTATCCCA | -0.165
140 | GGGGTCTA | -0.144
141 | AAAGGCAA | 0.263
142 | ATTCGCAA | 0.0292
143 | CACTACTA | 0.0868
144 | CACCCATG | -0.0439
145 | AATATAGA | 0.131
146 | AAACTCCT | -0.195
147 | ACAGAAAA | 0.0922
148 | AGATCATA | 0.155
149 | CCGCAAGA | 0.0755
150 | GACCTTGC | -0.147

Row | Sequence | PBM E-score
151 | AGGTGCAC | -0.151
152 | AAGTTTAT | 0.102
153 | GCATAGCA | 0.00751
154 | ACTGCTAC | -0.0776
155 | AGTTAGTA | -0.0891
156 | AGGATCTG | -0.218
157 | CTTAGCCC | -0.126
158 | AGCCGGCT | 0.00409
159 | GACGAAAA | 0.215
160 | GGTTTCCA | -0.255
161 | CGTTAGCA | 0.0863
162 | AGCATCGG | -0.0843
163 | ACCATACA | -0.233
164 | GCTAAGAA | -0.208
165 | CGTAAGAG | -0.115
166 | AGGTACCT | -0.315
167 | CGTTCGTA | 0.241
168 | ACGTACCG | -0.211
169 | GAATGATC | 0.0111
170 | CCTGAATC | -0.0491
171 | TATGGAGA | -0.0944
172 | CTTAGCAC | 0.024

Source: the supplement of paper PMC3334620
